According to the RNAGym collection of RNA variant scans (doi:10.1073/pnas.2313332121):
This sample is rich in variants without activity.

B1: TPR 5TU (parent)
chain: GGAUCUUCUCGAUCUAACAAAAAAGACAAAUCUGCCACAAAGCUUGAGAGCAUCUUCGGAUGCAGAGGCGGCAGCCUUCGGUGGCGCGAUAGCGCCAACGUUCUCAACUAUGACACGCAAAACGCGUGCUCCGUUGAAUGGAGUUUAUCAUG

Variants of: B1
Assay: polymerase ribozyme fitness, log enrichment relative to wild type (log ratio); higher = more active; in vitro selection for triplet polymerase activity
Procedure, shortened: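 Mutant libraries were PCR-built and transcribed for each subunit of a heterodimeric triplet polymerase ribozyme and selected for one round in triplicate at −7 °C, frozen, before gel excision of extended constructs and streptavidin-bead capture. Input and output libraries were Illumina-sequenced, keeping genotypes with ≥10 input reads and ≥1 read per output. Fitness is a logarithmic ratio of genotype to wild-type enrichment, in base 2, using inverse-variance-weighted replicate averages.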

Row | Variant | polymerase ribozyme fitness (log ratio)
1 | C18U U61A C79A A120G | ≤ -4.2
2 | A19C A20G A22C A23C A49U G50A U77A G88C A115G A150G | ≤ -4.2
3 | A19C A20G A22U A26G A47U C63U C125U | ≤ -4.2
4 | A19C A20G A24G U55G G67C C69U G83U A97U G140U | ≤ -4.2
5 | A19C A20G A37G U45C G74C C99A U130C | ≤ -4.2
6 | A19C A20U C85U G136A | -0.21
7 | A19C A21G G50A C76G C96U C99G U104A U146C | ≤ -4.2
8 | A19C A21U A40C A60C C96G A110G G136U | ≤ -4.2
9 | A19C A22G G46A C95A U101C C125U G140C | ≤ -4.2
10 | A19C A24U C35G C38U C75G G88C A91C A98G C131U | ≤ -4.2
11 | A19C A29U U53G C85G C114G U146C | ≤ -4.2
12 | A19C A37C A40G G84C G140U | ≤ -4.2
13 | A19C A39U G50A U55A C131U U135G G140U U144A | ≤ -4.2
14 | A19C A40U G46A | -0.204
15 | A19C A41C G46A G84C C87G C103G | ≤ -4.2
16 | A19C A41C G48C C87U A91C A115C A122U G136C U145A | ≤ -4.2
17 | A19C A49C A73U U77G C96G U139A G143A | ≤ -4.2
18 | A19C A49G A60G C79G C87G A98G U111A A113C | ≤ -4.2
19 | A19C A52C U56A C72U G86U A91U G126A | ≤ -4.2
20 | A19C A52G G88A A106G U139A | ≤ -4.2
21 | A19C A60C U102G U109G U151G | ≤ -4.2

Row | Variant | polymerase ribozyme fitness (log ratio)
22 | A19C A60G G83C C95G A110U G128U U135C U146G | ≤ -4.2
23 | A19C A66G A89U C99U | ≤ -4.2
24 | A19C A91C C118G A142C | ≤ -4.2
25 | A19C A115U C118G C129U A142U | ≤ -4.2
26 | A19C C36A U56G A91G U144A | ≤ -4.2
27 | A19C C43U C85U G136U | ≤ -4.2
28 | A19C C43U U61G A64C U77G C85U A110U C116G | ≤ -4.2
29 | A19C C51G C87A G94C | ≤ -4.2
30 | A19C C51U A52G G84U A89U G124U G141U | -1.23
31 | A19C C69A U130G C149U | ≤ -4.2
32 | A19C C72A A107U G143A | ≤ -4.2
33 | A19C C79G U102G G140C U146G | ≤ -4.2
34 | A19C G25U U55A C72U G88A G128A G152A | ≤ -4.2
35 | A19C G34A A39C G67A G86A | ≤ -4.2
36 | A19C G34A C57U G86C C96U A98U | -3.16
37 | A19C G46A G62A G94A C95A | ≤ -4.2
38 | A19C G50A A52C G65U C99U U148G | ≤ -4.2
39 | A19C G50U C93U C132U A138G U151A | ≤ -4.2
40 | A19C G58C C87A C95A A98G | ≤ -4.2
41 | A19C G62U C95U C96A | -2.36
42 | A19C G70C C103G | ≤ -4.2

Row | Variant | polymerase ribozyme fitness (log ratio)
43 | A19C G83U C118U A120G U148G | ≤ -4.2
44 | A19C G86C C99U | -2.28
45 | A19C U31A A41C A64C C93A C114G G126A | ≤ -4.2
46 | A19C U31G A39C A64G | ≤ -4.2
47 | A19C U45A G59U U148A C149G | ≤ -4.2
48 | A19C U45A G67A | ≤ -4.2
49 | A19C U53A G71A U78A G92C C116U A142U | ≤ -4.2
50 | A19C U53A G92A | -3.8
51 | A19C U55A A91G | -2.67
52 | A19C U56A | 0.406
53 | A19C U56A C57G U77G G88A A97G C118G G141U A142G G152U | ≤ -4.2
54 | A19C U56A G92A G133U A147U | ≤ -4.2
55 | A19C U61A A107C A120G | ≤ -4.2
56 | A19G A20G A60G C76A A89U C93A | ≤ -4.2
57 | A19G A20U A28U U53G G62U G71A G80A G92U A98G | ≤ -4.2
58 | A19G A20U A41G U45A C57U A113G C114U | ≤ -4.2
59 | A19G A21C A30U C38G A41C G48A U77G C93G C114G | ≤ -4.2
60 | A19G A24U C85A C114A A115G A120G | ≤ -4.2
61 | A19G A26C U55G G83U U151C | ≤ -4.2
62 | A19G A26C U144G | -2.17
63 | A19G A26G G81C G92A U134A | ≤ -4.2

Row | Variant | polymerase ribozyme fitness (log ratio)
64 | A19G A26G G92C | ≤ -4.2
65 | A19G A28G A60G G86C A107G C118U G141U | ≤ -4.2
66 | A19G A28U A40C A60C G71U C75A G86U | ≤ -4.2
67 | A19G A37C G68C G83C C96U G126C U151G | ≤ -4.2
68 | A19G A40C C93U | -0.92
69 | A19G A40U A64G U102A U111A U134C | ≤ -4.2
70 | A19G A41G U45A G86C A142G U144G | ≤ -4.2
71 | A19G A47C C72G A110U | ≤ -4.2
72 | A19G A49C C54A G68A C93A C95A C103U G124A | ≤ -4.2
73 | A19G A49G C57U C93A G117C | ≤ -4.2
74 | A19G A64C U78G A91U | ≤ -4.2
75 | A19G A91U C96U | ≤ -4.2
76 | A19G C27A A28C A39C G88C | ≤ -4.2
77 | A19G C27G C85A C116U | ≤ -4.2
78 | A19G C27U U78C C93U C123G U127C | ≤ -4.2
79 | A19G C32G G59U A73U G86A C125A | ≤ -4.2
80 | A19G C32G G68U | ≤ -4.2
81 | A19G C35A U44A A47C C69A | ≤ -4.2
82 | A19G C35G U55A G58A A60C C85U G140C | ≤ -4.2
83 | A19G C57G G84U | -2.3
84 | A19G C85G G117A A137G | -2.73
